Test results: ChEMBL document CHEMBL5052851, “Mettl3 modulators” (2021)

How the values were obtained:
MOLM-13 [1] = assay: Antiproliferative activity against human MOLM-13 cells after 96 hrs by Cell Titer-Glo assay; format: functional, cell-based; conditions: MOLM-13, 96 h
[2] = biological target: T1, N6-adenosine-methyltransferase catalytic subunit (Homo sapiens, UniProt Q86U44); assay: Inhibition of METTL3-mediated m6A methylation in human MOLM-13 cells assessed as reduction in mRNA level measured after 24 hrs by LC-MS/MS analysis; format: cell-based
[3] = biological target: T1, N6-adenosine-methyltransferase catalytic subunit; assay: Inhibition of METTL3 (unknown origin) using UCUGGACUAAA-biotin and 3H-SAM as substrates preincubated for 5 mins followed by substrate addition incubated for 30 mins by TopCount scintillation counting method
MOLM-13 [4] = assay: Antiproliferative activity against human MOLM-13 cells after 48 hrs by Cell Titer-Glo assay; format: functional, cell-based; conditions: MOLM-13, 48 h
[5] = Inhibition of METTL16 (unknown origin) using CGAUACAGAGAAGAUUAGCAUACGCAAAUUCGUGAAGCG-biotin and SAM as substrates preincubated for 5 mins followed by substrate addition incubated for 220 mins by TopCount scintillation counting method; set-up: species or system Homo sapiens

T1 sequence (Q86U44 whole entry): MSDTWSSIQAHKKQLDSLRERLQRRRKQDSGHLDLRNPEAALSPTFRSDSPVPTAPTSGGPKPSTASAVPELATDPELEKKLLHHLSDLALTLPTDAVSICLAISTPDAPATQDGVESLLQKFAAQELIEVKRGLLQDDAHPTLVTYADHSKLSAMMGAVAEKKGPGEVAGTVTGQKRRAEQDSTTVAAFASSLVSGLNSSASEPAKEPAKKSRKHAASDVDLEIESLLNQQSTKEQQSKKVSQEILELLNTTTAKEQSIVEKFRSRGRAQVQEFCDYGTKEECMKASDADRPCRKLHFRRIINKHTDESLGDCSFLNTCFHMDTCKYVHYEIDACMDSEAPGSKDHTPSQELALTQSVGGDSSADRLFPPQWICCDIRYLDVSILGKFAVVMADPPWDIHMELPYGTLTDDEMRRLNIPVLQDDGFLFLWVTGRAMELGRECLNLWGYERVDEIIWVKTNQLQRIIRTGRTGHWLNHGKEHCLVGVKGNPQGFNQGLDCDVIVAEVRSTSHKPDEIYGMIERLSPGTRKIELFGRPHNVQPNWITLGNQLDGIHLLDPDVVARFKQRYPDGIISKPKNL

Structure (SMILES) | IC50 (MOLM-13 [1]) [nM] | IC50 [2] [nM] | IC50 [3] [nM] | IC50 (MOLM-13 [4]) [nM] | IC50 [5] [nM]
CNc1ccc2ccc(OCc3cncc(-n4cc(-c5ccc(CNCCS(C)(=O)=O)o5)c5c(N)ncnc54)c3)cc2n1 | 1000 | 1000 | < 10 | – | –
CNc1ccc2ccc(OCc3cncc(-n4ccc5c(N)ncnc54)n3)cc2n1 | – | 1000 | < 10 | 1000 | –
CCc1cc(NCCOC)c2ccc(CCc3cncc(-n4cc(-c5ccn(C)n5)c5c(N)ncnc54)c3)cc2n1 | < 1000 | < 1000 | < 10 | – | ≥ 1000
CNc1ccc2ccc(CCc3cncc(-n4cc(C5CCCC5)c5c(N)ncnc54)n3)cc2n1 | – | 1000 | < 10 | – | ≥ 1000
CNc1ccc2ccc(OCc3cc(CO)cc(-n4ccc5c(N)ncnc54)c3)cc2n1 | 1000 | – | < 10 | ≥ 10000 | –
CCc1cc(NCCN(C)C)c2c(F)cc(CCc3cncc(-n4cc(-c5ccn(C)n5)c5c(N)ncnc54)c3)cc2n1 | < 1000 | 1000 | < 10 | – | –
CCc1cc(N(C)CCN(C)C)c2ccc(CCc3cncc(-n4cc(-c5ccn(C)n5)c5c(N)ncnc54)c3)cc2n1 | < 1000 | 1000 | < 10 | – | –
CNc1ccc2ccc(OCc3cncc(-n4cc(C5CCCC5)c5c(N)ncnc54)n3)cc2n1 | – | ≥ 10000 | ≤ 100 | 1000 | –
CCc1cc(N)c2ccc(OCc3cncc(-n4cc(Cl)c5c(N)ncnc54)c3)cc2n1 | – | ≥ 10000 | < 10 | – | ≥ 1000
CNc1ccc2ccc(OCc3cc(CO)cc(-n4cc(Cl)c5c(N)ncnc54)c3)cc2n1 | – | ≥ 10000 | < 10 | < 1000 | ≥ 1000
CCNc1ccc2ccc(CCc3cncc(-n4cc(-c5ccn(C)n5)c5c(N)ncnc54)c3)cc2n1 | < 1000 | < 1000 | < 10 | – | –
CNc1ccc2ccc(OCc3cncc(-n4cc(CC5CC5)c5c(N)ncnc54)c3)cc2n1 | – | 1000 | < 10 | < 1000 | ≥ 1000
Cn1ccc(-c2cn(-c3cncc(CCc4ccc5ccc(N6CCC6)nc5c4)c3)c3ncnc(N)c23)n1 | < 1000 | < 1000 | < 10 | – | –
CCNc1ccc2ccc(OCc3cncc(-n4cc(Cl)c5c(N)ncnc54)c3)cc2n1 | – | 1000 | < 10 | 1000 | ≥ 1000
CNc1cc(CCCN2CCOCC2)c2ccc(OCc3cncc(-n4ccc5c(N)ncnc54)c3)cc2n1 | 1000 | ≥ 10000 | < 10 | – | –
CCNc1ccc2ccc(OCc3cncc(-n4cc(-c5ccn(C)n5)c5c(N)ncnc54)c3)cc2n1 | 1000 | 1000 | < 10 | – | ≥ 1000
CC(C)c1cc(N)c2ccc(OCc3cncc(-n4ccc5c(N)ncnc54)c3)cc2n1 | 1000 | – | < 10 | 1000 | –
CNc1ccc2ccc(OCc3cncc(-n4c(C)cc5c(N)ncnc54)c3)cc2n1 | – | 1000 | – | 1000 | ≥ 1000
CNc1ccc2ccc(OCc3cncc(-n4cc([C@H]5CCCO5)c5c(N)ncnc54)c3)cc2n1 | < 1000 | 1000 | < 10 | – | ≥ 1000
CCc1cc(N2CCNCC2)c2ccc(OCc3cncc(-n4cc(-c5ccn(C)n5)c5c(N)ncnc54)c3)cc2n1 | < 1000 | 1000 | < 10 | – | ≥ 1000
Nc1ncnc2c1c(Cl)cn2-c1cncc(COc2ccc3ccc(N4CCC4)nc3c2)c1 | – | ≥ 10000 | < 10 | 1000 | ≥ 1000
Nc1ncnc2c1c(C1CCCO1)cn2-c1cncc(CCc2ccc3ccc(N4CCC4)nc3c2)c1 (stereo not given) | 1000 | 1000 | < 10 | – | ≥ 1000
CNc1ccc2ccc(OCc3cncc(-n4cc(-c5ccnn5C)c5c(N)ncnc54)c3)cc2n1 | – | ≥ 10000 | < 10 | < 1000 | ≥ 1000
CNc1ccc2ccc(OCc3cncc(-n4cc(C5CCCC5)c5c(N)ncnc54)c3)cc2n1 | < 1000 | 1000 | < 10 | < 1000 | ≥ 1000
Cc1cc(NCCN(C)C)c2ccc(OCc3cncc(-n4cc(Cl)c5c(N)ncnc54)c3)cc2n1 | – | – | – | < 1000 | ≥ 1000
CNc1ccc2ccc(OCc3cncc(-n4cc(C)c5c(N)ncnc54)c3)cc2n1 | – | ≥ 10000 | < 10 | < 1000 | –
CCc1cc(N(C)C)c2ccc(OCc3cncc(-n4cc(-c5ccn(C)n5)c5c(N)ncnc54)c3)cc2n1 | < 1000 | ≥ 10000 | < 10 | – | –

Structure (SMILES) | IC50 (MOLM-13 [1]) [nM] | IC50 [2] [nM] | IC50 [3] [nM] | IC50 (MOLM-13 [4]) [nM] | IC50 [5] [nM]
CCc1cc(NCCN(C)C)c2ccc(OCc3cncc(-n4ccc5c(N)ncnc54)c3)cc2n1 | – | – | < 10 | 1000 | –
CCc1cc(NCCOC)c2ncc(OCc3cncc(-n4cc(-c5ccn(C)n5)c5c(N)ncnc54)c3)cc2n1 | < 1000 | 1000 | < 10 | – | –
CNc1ccc2ccc(OCc3cncc(-n4cc(-c5ccc(C)o5)c5c(N)ncnc54)c3)cc2n1 | 1000 | 1000 | < 10 | – | ≥ 1000
CNc1ccc2ccc(OCc3cccc(-n4cc(Cl)c5c(N)ncnc54)c3)cc2n1 | 1000 | – | – | 1000 | ≥ 1000
CCc1cc(NC)c2ccc(OCc3cncc(-n4cc(-c5ccn(C)n5)c5c(N)ncnc54)c3)cc2n1 | < 1000 | 1000 | < 10 | – | –
CCc1cc(NCCOC)c2ccc(OCc3cncc(-c4c[nH]c5c(N)ncnc45)c3)cc2n1 | – | – | < 10 | ≥ 10000 | –
CNc1ccc2ccc(OCc3cncc(-c4c(C)[nH]c5c(N)ncnc45)c3)cc2n1 | – | ≥ 10000 | < 10 | ≥ 10000 | ≥ 1000
CCc1cc(N(C)CC2CC2)c2ccc(OCc3cncc(-n4cc(-c5ccn(C)n5)c5c(N)ncnc54)c3)cc2n1 | < 1000 | 1000 | < 10 | – | –
CNc1ccc2ccc(OCc3cncc(-c4cn(C5CCCC5)c5c(N)ncnc45)c3)cc2n1 | – | 1000 | < 10 | 1000 | –
CCc1cc(NCCOC)c2ccc(OCc3cncc(-n4ccc5c(N)ncnc54)c3)cc2n1 | – | 1000 | < 10 | 1000 | –
CCc1cc(N)c2ccc(OCc3cncc(-n4ccc5c(N)ncnc54)c3)cc2n1 | – | ≥ 10000 | < 10 | ≥ 10000 | ≥ 1000
CC(C)c1cc(N2CCNCC2)c2ccc(OCc3cncc(-n4ccc5c(N)ncnc54)c3)cc2n1 | < 1000 | 1000 | < 10 | – | –
COCCn1ccc(-c2cn(-c3cncc(COc4ccc5ccc(N6CCC6)nc5c4)c3)c3ncnc(N)c23)n1 | < 1000 | < 1000 | < 10 | – | –
CCc1cc(N(C)C2CC2)c2ccc(OCc3cncc(-n4cc(-c5ccn(C)n5)c5c(N)ncnc54)c3)cc2n1 | < 1000 | 1000 | < 10 | – | –
CNc1ccc2ccc(OCc3cncc(-n4cc(Cl)c5c(N)ncnc54)c3)cc2n1 | 1000 | 1000 | < 10 | 1000 | ≥ 1000
CNc1ccc2ccc(CCc3cncc(-n4cc(-c5ccn(C)n5)c5c(N)ncnc54)c3)cc2n1 | – | < 1000 | < 10 | < 1000 | –
CCc1cc(N2CCOCC2)c2ccc(OCc3cncc(-n4ccc5c(N)ncnc54)c3)cc2n1 | 1000 | 1000 | < 10 | – | –
CCc1cc(N)c2ccc(OCc3cncc(-n4cc(C5CCCC5)c5c(N)ncnc54)c3)cc2n1 | – | 1000 | < 10 | < 1000 | –
CNc1ccc2ccc(OCc3cncc(-c4c[nH]c5c(N)ncnc45)c3)cc2n1 | – | ≥ 10000 | < 10 | ≥ 10000 | ≥ 1000
Nc1ncnc2c1c([C@@H]1CCCO1)cn2-c1cncc(COc2ccc3ccc(N4CCC4)nc3c2)c1 | < 1000 | < 1000 | < 10 | – | –
CCc1cc(NCCN(C)C)c2c(F)cc(OCc3cncc(-n4cc(-c5ccn(C)n5)c5c(N)ncnc54)c3)cc2n1 | 1000 | ≥ 10000 | < 10 | – | –
CNc1ccc2cc(CCc3cccc(-n4cc(Cl)c5c(N)ncnc54)c3)ccc2n1 | 1000 | ≥ 10000 | – | 1000 | ≥ 1000
CNc1ccc2ccc(OCc3cc(CO)cc(-c4c[nH]c5c(N)ncnc45)c3)cc2n1 | – | ≥ 10000 | < 10 | ≥ 10000 | –
CNc1ccc2ccc(OCc3cncc(-n4ccc5c(N)ncnc54)c3)cc2n1 | – | 1000 | < 10 | < 1000 | ≥ 1000
CNc1ccc2ccc(OCc3cncc(-n4cc([C@@H]5CCCO5)c5c(N)ncnc54)c3)cc2n1 | 1000 | < 1000 | < 10 | – | ≥ 1000
CN(C)CCNc1cc(C2CCC2)nc2cc(OCc3cncc(-n4ccc5c(N)ncnc54)c3)ccc12 | < 1000 | 1000 | < 10 | – | –
CNc1ccc2ccc(CCc3cncc(-n4ccc5c(N)ncnc54)c3)cc2n1 | – | 1000 | – | 1000 | ≥ 1000
